In the supplement of paper PMC8728848:
The list shows a part of the results.

What was measured:
Experiment in all cases: glycan array binding signal (z-score within array); higher = stronger binding
Details in all cases: glycan notation: IUPAC condensed, linker removed
[1] = molecular target: Neu5Ac(a2-6)Gal(b1-4)GlcNAc(b1-6)[Gal(b1-3)]GalNAc
Outline: (§1)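 Arrays were curated from the Consortium for Functional Glycomics database, 3228 in total, and kept only where the protein sequence was available. Binding is expressed as a within-array Z-score. This score was averaged across arrays of the same protein sequence at different concentrations or buffers and across linkers, and negative values can be read as non-binding.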

[2] = molecular target: Neu5Ac(a2-6)Gal(b1-4)GlcNAc6S
Outline: as §1

Neu5Ac(a2-6)GalNAc = molecular target: Neu5Ac(a2-6)GalNAc
Outline: as §1

[3] = molecular target: Neu5Ac(a2-6)GalNAc(b1-4)GlcNAc
Outline: as §1

[4] = molecular target: Neu5Ac(a2-6)GalNAc(b1-4)GlcNAc6S
Outline: as §1

[5] = molecular target: Neu5Ac(a2-6)GlcNAc(b1-4)GlcNAc
Outline: as §1

[6] = molecular target: Neu5Ac(a2-6)GlcNAc(b1-4)GlcNAc(b1-4)GlcNAc
Outline: as §1

Neu5Ac(a2-8)Neu5Ac = molecular target: Neu5Ac(a2-8)Neu5Ac
Outline: as §1

[7] = molecular target: Neu5Ac(a2-8)Neu5Ac(a2-3)Gal(b1-3)GalNAc(b1-4)[Neu5Ac(a2-3)]Gal(b1-4)Glc
Outline: as §1

[8] = molecular target: Neu5Ac(a2-8)Neu5Ac(a2-3)Gal(b1-3)GalNAc(b1-4)[Neu5Ac(a2-8)Neu5Ac(a2-3)]Gal(b1-4)Glc
Outline: as §1

[9] = molecular target: Neu5Ac(a2-8)Neu5Ac(a2-3)Gal(b1-4)Glc
Outline: as §1

[10] = molecular target: Neu5Ac(a2-8)Neu5Ac(a2-3)Gal(b1-4)GlcNAc
Outline: as §1

[11] = molecular target: Neu5Ac(a2-8)Neu5Ac(a2-3)[Gal(b1-3)GalNAc(b1-4)]Gal(b1-4)Glc
Outline: as §1

[12] = molecular target: Neu5Ac(a2-8)Neu5Ac(a2-3)[GalNAc(b1-4)]Gal(b1-4)Glc
Outline: as §1

[13] = molecular target: Neu5Ac(a2-8)Neu5Ac(a2-8)Neu5Ac
Outline: as §1

[14] = molecular target: Neu5Ac(a2-8)Neu5Ac(a2-8)Neu5Ac(a2-3)Gal(b1-4)Glc
Outline: as §1

[15] = molecular target: Neu5Ac(a2-8)Neu5Ac(a2-8)Neu5Ac(a2-3)[Gal(b1-3)GalNAc(b1-4)]Gal(b1-4)Glc
Outline: as §1

[16] = molecular target: Neu5Ac(a2-8)Neu5Ac(a2-8)Neu5Ac(a2-3)[GalNAc(b1-4)]Gal(b1-4)Glc
Outline: as §1

[17] = molecular target: Neu5Ac(a2-8)Neu5Ac(a2-8)Neu5Ac(a2-8)Neu5Ac(a2-3)[GalNAc(b1-4)]Gal(b1-4)Glc
Outline: as §1

[18] = molecular target: Neu5Ac(a2-8)Neu5Gc(a2-3)Gal(b1-4)GlcNAc
Outline: as §1

[19] = molecular target: Neu5Ac(b2-6)Gal(b1-4)GlcNAc
Outline: as §1

Neu5Ac(b2-6)GalNAc = molecular target: Neu5Ac(b2-6)GalNAc
Outline: as §1

[20] = molecular target: Neu5Ac9Ac(a2-3)Gal(b1-3)GlcNAc
Outline: as §1

[21] = molecular target: Neu5Ac9Ac(a2-3)Gal(b1-4)GlcNAc
Outline: as §1

[22] = molecular target: Neu5Ac9Ac(a2-6)Gal(b1-4)GlcNAc
Outline: as §1

[23] = molecular target: Neu5Gc(a2-3)Gal(b1-3)GlcNAc
Outline: as §1

[24] = molecular target: Neu5Gc(a2-3)Gal(b1-3)[Fuc(a1-4)]GlcNAc
Outline: as §1

Neu5Gc(a2-3)Gal(b1-4)Glc = molecular target: Neu5Gc(a2-3)Gal(b1-4)Glc
Outline: as §1

[25] = molecular target: Neu5Gc(a2-3)Gal(b1-4)GlcNAc
Outline: as §1

[26] = molecular target: Neu5Gc(a2-3)Gal(b1-4)GlcNAc(b1-3)Gal(b1-4)GlcNAc(b1-2)Man(a1-3)[Neu5Gc(a2-3)Gal(b1-4)GlcNAc(b1-3)Gal(b1-4)GlcNAc(b1-2)Man(a1-6)]Man(b1-4)GlcNAc(b1-4)GlcNAc
Outline: as §1

[27] = molecular target: Neu5Gc(a2-3)Gal(b1-4)[Fuc(a1-3)]GlcNAc
Outline: as §1

[28] = molecular target: Neu5Gc(a2-6)Gal(b1-4)GlcNAc
Outline: as §1

Neu5Gc(a2-6)GalNAc = molecular target: Neu5Gc(a2-6)GalNAc
Outline: as §1

[29] = molecular target: Neu5Gc(a2-8)Neu5Ac(a2-3)Gal(b1-4)GlcNAc
Outline: as §1

[30] = molecular target: Neu5Gc(a2-8)Neu5Gc(a2-3)Gal(b1-4)GlcNAc
Outline: as §1

[31] = molecular target: Neu5Gc(a2-8)Neu5Gc(a2-3)Gal(b1-4)GlcNAc(b1-3)Gal(b1-4)GlcNAc
Outline: as §1

[32] = molecular target: Neu5Gc(a2-8)Neu5Gc(a2-6)Gal(b1-4)GlcNAc
Outline: as §1

[33] = molecular target: Neu5Gc(b2-6)Gal(b1-4)GlcNAc
Outline: as §1

B1: EULS2 M4 (Oryza sativa) (protein)
chain: MVYCRANPNYAMTARNGAVVLAPANPKDEYQHWIKDMRWSTSIKDEEGYPAFALVNKATGQAIKHSLGQSHPVRLVPYNPEVMDESVLWTESRDVGNGFRCIRMVNNIYLNFDAFHGDKYHGGVRDGTDIVLWKWCEGDSLRWKIQPYYILEQKLISEEDLNSAVDHHHHHH
[1]
  glycan array binding signal (z-score): -0.392
[2]
  glycan array binding signal (z-score): 0.663
Neu5Ac(a2-6)GalNAc
  glycan array binding signal (z-score): 0.062
[3]
  glycan array binding signal (z-score): 0.222
[4]
  glycan array binding signal (z-score): -0.165
[5]
  glycan array binding signal (z-score): -0.524
[6]
  glycan array binding signal (z-score): -0.367
Neu5Ac(a2-8)Neu5Ac
  glycan array binding signal (z-score): -0.509
[7]
  glycan array binding signal (z-score): -0.429
[8]
  glycan array binding signal (z-score): 1.2
[9]
  glycan array binding signal (z-score): 1.06
[10]
  glycan array binding signal (z-score): -0.156
[11]
  glycan array binding signal (z-score): -0.446
[12]
  glycan array binding signal (z-score): -0.64
[13]
  glycan array binding signal (z-score): -0.325
[14]
  glycan array binding signal (z-score): -0.514
[15]
  glycan array binding signal (z-score): -0.536
[16]
  glycan array binding signal (z-score): -0.825
[17]
  glycan array binding signal (z-score): -0.453
[18]
  glycan array binding signal (z-score): -0.286
[19]
  glycan array binding signal (z-score): -0.372
Neu5Ac(b2-6)GalNAc
  glycan array binding signal (z-score): 0.656
[20]
  glycan array binding signal (z-score): -0.05
[21]
  glycan array binding signal (z-score): 1.11
[22]
  glycan array binding signal (z-score): -0.532
[23]
  glycan array binding signal (z-score): -0.111
[24]
  glycan array binding signal (z-score): -0.495
Neu5Gc(a2-3)Gal(b1-4)Glc
  glycan array binding signal (z-score): 2.09
[25]
  glycan array binding signal (z-score): -0.415
[26]
  glycan array binding signal (z-score): -0.344
[27]
  glycan array binding signal (z-score): 0.599
[28]
  glycan array binding signal (z-score): 2.07
Neu5Gc(a2-6)GalNAc
  glycan array binding signal (z-score): -0.203
[29]
  glycan array binding signal (z-score): -0.626
[30]
  glycan array binding signal (z-score): -0.413
[31]
  glycan array binding signal (z-score): -0.269
[32]
  glycan array binding signal (z-score): -0.446
[33]
  glycan array binding signal (z-score): -0.504
